Measured values: patent US7208293

B1: EpiNE7.21 display phage (designed binder)
chain: RPDFCLEPPYTGPCVAMFPRYFYNAKAGLCQTFHYGGCWGQGNNFKSAEDCMRTCGGAGAAETVESCLAKPHTENSFTNVWKDDKTLDRYANYEGCLWNATGVVVCTGDETQCYGTWVPIGLAIPENEGGGSEGGGSEGGGSEGGGTKPPEYGDTPIPGYTYINPLDGTYPPGTEQNPANPNPSLEESQPLNTFMFQNNRFRNRQGALTVYTGTVTQGTDPVKTYYQYTPVSSKAMYDAYWNGKFRDCAFHSGFNEDPFVCEYQGQSSDLPQPPVNAGGGSGGGSGGGSEGGGSEGGGSEGGGSEGGGSGGGSGSGDFDYEKMANANKGAMTENADENALQSDAKGKLDSVATDYGAAIDGFIGDVSGLANGNGATGDFAGSNSQMAQVGDGDNSPLMNNFRQYLPSLPQSVECRPFVFSAGKPYEFSIDCDKINLFRGVFAFLLYVATFMYVFSTFANILRNKES
notes: gene III display, KLMUT library
B2: EpiNE7.28 display phage (designed binder)
chain: B1 chain with H34T, W39L, Q41H
notes: as for B1
B3: EpiNE7.32 display phage (designed binder)
chain: B1 chain with H34G, Q41E
notes: as for B1
B4: EpiNE7.25 display phage (designed binder)
chain: B1 chain with H34P, G40A, Q41K, S47L
notes: as for B1
B5: EpiNE7.38 display phage (designed binder)
chain: B1 chain with H34Y, G40A, Q41K
B6: EpiNE7.26 display phage (designed binder)
chain: B1 chain with H34K, Q41H
notes: as for B1
B7: EpiNE7.22 display phage (designed binder)
chain: B1 chain with Q41E
notes: as for B1
B8: EpiNE7.40 display phage (designed binder)
chain: B1 chain with H34T, W39H, Q41N
notes: as for B1
B9: EpiNE7.30 display phage (designed binder)
chain: B1 chain with H34K, G40A, Q41E
notes: gene III display, KLMUT library; also called EpiNE7.34; EpiNE7.35
B10: EpiNE7.37 display phage (designed binder)
chain: B1 chain with H34M, W39Q, Q41K
notes: as for B1
B11: EpiNE7.33 display phage (designed binder)
chain: B1 chain with H34E, G40A, Q41N
notes: as for B1
B12: EpiNE7.27 display phage (designed binder)
chain: B1 chain with H34N, Q41K
notes: as for B1
B13: EpiNE7.24 display phage (designed binder)
chain: B1 chain with H34K, W39H, Q41N
notes: as for B1
B14: EpiNE7.29 display phage (designed binder)
chain: B1 chain with H34T, W39L, Q41Y
notes: as for B1
B15: EpiNE7.39 display phage (designed binder)
chain: B1 chain with H34M, Q41D
notes: as for B1

Each binder was assayed against T1, human neutrophil elastase (human, UniProt P08246 30-247) (assay: clone from the pH 2.0 eluate, third round of the second fractionation of the KLMUT library on HNE beads).
T1 construct: also called HNE; HNE beads
T1 sequence (looked up): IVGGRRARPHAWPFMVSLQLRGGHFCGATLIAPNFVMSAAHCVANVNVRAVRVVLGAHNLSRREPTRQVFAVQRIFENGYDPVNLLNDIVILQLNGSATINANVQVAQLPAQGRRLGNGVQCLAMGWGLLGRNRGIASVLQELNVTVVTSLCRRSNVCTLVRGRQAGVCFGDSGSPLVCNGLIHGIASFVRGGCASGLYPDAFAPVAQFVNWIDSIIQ

Binder	binding result
B1	binds
B2	binds
B3	binds
B4	binds
B5	binds
B6	binds
B7	binds
B8	binds
B9	binds
B10	binds
B11	binds
B12	binds
B13	binds
B14	binds
B15	binds

Substitutions are numbered along the chain they refer to.
